Here are results for 28 compounds from the antibiotic and cytotoxicity screens of Wong et al. (2023).

The list shows a part of the results.

One assay concerns HSkMC. Nature of the assay: cytotoxicity call (relative viability < 0.9). The following applies: 10 µM.
The next assay deals with HepG2. As to the kind of experiment: cytotoxicity call (relative viability < 0.9). The following applies: 10 µM.
A further assay has as its system S. aureus RN4220. As to the kind of experiment: growth inhibition call (relative growth <= 0.2). The following applies: 50 µM.

`Cc1noc(C)c1NC(=O)N(C)C[C@H]1Oc2ccc(NC(=O)CCN3CCOCC3)cc2C(=O)N([C@@H](C)CO)C[C@H]1C`: the cytotoxicity call with HSkMC and with HepG2 was “inactive” throughout. Also, in the assay with S. aureus RN4220, the growth inhibition call is “inactive”.

On to `C[C@@H]1CCCCO[C@@H](CN(C)C(=O)c2ccncc2)[C@H](C)CN([C@H](C)CO)C(=O)c2cc(NS(C)(=O)=O)ccc2O1`, for which the cytotoxicity call in the assay on HSkMC and in the assay with HepG2 was “inactive” in each case. In the assay on S. aureus RN4220, the growth inhibition call is “inactive”.

Turning to `C[C@@H]1CN([C@H](C)CO)S(=O)(=O)c2ccc(C#CC3CCCC3)cc2O[C@H]1CN(C)C(=O)Cc1ccncc1`, the cytotoxicity call in the assay with HSkMC and in the assay on HepG2 was “inactive” throughout. In the assay with S. aureus RN4220, the growth inhibition call is “inactive”.

Consider `COc1ccccc1C#Cc1ccc2c(c1)O[C@@H](CN(C)C(C)=O)[C@H](C)CN([C@@H](C)CO)S2(=O)=O`, for which the cytotoxicity call in the assay on HSkMC and in the assay with HepG2 was “inactive” throughout. In the assay on S. aureus RN4220, the growth inhibition call is “inactive”.

`CC(C)NC(=O)N(C)C[C@H]1Oc2ccc(NS(=O)(=O)c3cn(C)cn3)cc2C(=O)N([C@H](C)CO)C[C@@H]1C`: the cytotoxicity call in the assay with HSkMC and with HepG2 was “inactive” in each case. Moreover, the growth inhibition call in the assay on S. aureus RN4220 was “inactive”.

Turning to `C[C@@H]1CCCCO[C@@H](CN(C)C(=O)NC2CCCCC2)[C@@H](C)CN([C@@H](C)CO)C(=O)c2cc(NC(=O)Nc3ccc(F)cc3)ccc2O1`, the cytotoxicity call in the assay on HSkMC and in the assay with HepG2 was “inactive” throughout. The growth inhibition call in the assay on S. aureus RN4220 was “inactive”.

As for `Cc1noc(C)c1S(=O)(=O)N(C)C[C@H]1Oc2ccc(NC(=O)Nc3ccccc3)cc2CC(=O)N([C@H](C)CO)C[C@@H]1C`, the cytotoxicity call in the assay on HSkMC and with HepG2 was “inactive” throughout. Besides, the growth inhibition call in the assay on S. aureus RN4220 is “inactive”.

Take `C[C@H]1CCCCO[C@@H](CN(C)Cc2ccccc2)[C@@H](C)CN([C@@H](C)CO)C(=O)c2cc(NS(=O)(=O)c3ccc(F)cc3)ccc2O1`: the cytotoxicity call with HSkMC and in the assay with HepG2 was “inactive” in each case. Further, in the assay with S. aureus RN4220, the growth inhibition call was “inactive”.

Consider `NC(=O)c1cc2ccccc2nc1C(N)=O`, for which the cytotoxicity call in the assay with HSkMC and with HepG2 was “inactive” each time. Moreover, in the assay with S. aureus RN4220, the growth inhibition call was “inactive”.

Take `CC(C)(C)NC(=O)C1CN(Cc2cccnc2)CCN1CC(O)CC(Cc1ccccc1)C(=O)NC1c2ccccc2CC1O` (centres undefined): the cytotoxicity call with HSkMC is “inactive”. Besides, the cytotoxicity call in the assay on HepG2 is “active”. Further, the growth inhibition call in the assay on S. aureus RN4220 was “inactive”.

`O=C(C[C@H]1CC[C@@H]2[C@H](COC[C@H](O)CN2C(=O)Nc2cccc(F)c2)O1)NCCCN1CCOCC1`: the cytotoxicity call in the assay on HSkMC and with HepG2 was “inactive” each time. The growth inhibition call with S. aureus RN4220 is “inactive”.

With `Cc1ccc(S(=O)(=O)N(C)C[C@@H]2OCCCC[C@H](C)Oc3ccc(NC(=O)Nc4ccc(F)cc4)cc3C(=O)N([C@H](C)CO)C[C@H]2C)cc1`, the cytotoxicity call in the assay with HSkMC and in the assay with HepG2 was “inactive” throughout. Moreover, the growth inhibition call in the assay with S. aureus RN4220 is “inactive”.

For `C[C@@H]1CN([C@@H](C)CO)S(=O)(=O)c2ccc(Br)cc2O[C@H]1CN(C)C(=O)c1ccncc1`, the cytotoxicity call with HSkMC and in the assay on HepG2 was “inactive” throughout. For the same compound, in the assay on S. aureus RN4220, the growth inhibition call is “inactive”.

As for `O=C(C[C@@H]1C=C[C@@H](NC(=O)c2cccc(F)c2)[C@@H](CO)O1)NCCN1CCCC1`, the cytotoxicity call in the assay with HSkMC and in the assay on HepG2 was “inactive” each time. Also, the growth inhibition call in the assay with S. aureus RN4220 was “inactive”.

Consider `COCC(=O)Nc1ccc2c(c1)CC(=O)N2C`, for which the cytotoxicity call in the assay on HSkMC and with HepG2 was “inactive” in each case. Besides, in the assay on S. aureus RN4220, the growth inhibition call was “inactive”.

On to `C[C@](N)(Cc1ccc(O)c(O)c1)C(=O)O`, for which the cytotoxicity call with HSkMC is “inactive”. For the same compound, the cytotoxicity call in the assay with HepG2 was “active”. Also, the growth inhibition call in the assay on S. aureus RN4220 is “inactive”.

Turning to `CC1(C)CCC(c2ccc(Cl)cc2)=C(CN2CCN(c3ccc(C(=O)NS(=O)(=O)c4ccc(N[C@H](CCN5CCOCC5)CSc5ccccc5)c(S(=O)(=O)C(F)(F)F)c4)cc3)CC2)C1`, the cytotoxicity call in the assay on HSkMC and in the assay on HepG2 was “active” each time. The growth inhibition call with S. aureus RN4220 was “inactive”.

In the case of `C[C@@H]1CCCCO[C@@H](CN(C)C(=O)Nc2ccc(C(F)(F)F)cc2)[C@H](C)CN([C@@H](C)CO)C(=O)c2cc(NC(=O)c3ccccc3)ccc2O1`, the cytotoxicity call in the assay on HSkMC and in the assay with HepG2 was “inactive” throughout. The growth inhibition call in the assay on S. aureus RN4220 is “inactive”.

Turning to `COc1ccc2c3c([nH]c2c1)[C@@H](CO)N(C[C@]13CN(Cc2ccccc2Cl)C1)S(=O)(=O)c1cn(cn1)C`, the cytotoxicity call in the assay on HSkMC and in the assay with HepG2 was “inactive” in each case. Also, the growth inhibition call with S. aureus RN4220 was “inactive”.

As to `C[C@H](CO)N1C[C@H](C)[C@H](CN(C)S(C)(=O)=O)OCCCC[C@H](C)Oc2ccc(NS(C)(=O)=O)cc2C1=O`, the cytotoxicity call with HSkMC and in the assay with HepG2 was “inactive” each time. The growth inhibition call in the assay on S. aureus RN4220 is “inactive”.

With `CO[C@H]1CN(C)C(=O)c2ccc(NS(C)(=O)=O)cc2OC[C@@H](C)N(C(=O)c2ccc3c(c2)OCO3)C[C@@H]1C`, the cytotoxicity call in the assay with HSkMC and in the assay with HepG2 was “inactive” throughout. Also, the growth inhibition call with S. aureus RN4220 is “inactive”.

As to `O=Cc1ccccc1OC1OC(CO)C(O)C(O)C1O` (centres undefined), the cytotoxicity call with HSkMC and with HepG2 was “inactive” each time. The growth inhibition call in the assay on S. aureus RN4220 is “inactive”.

As for `C[C@@H]1CN([C@@H](C)CO)C(=O)c2cc(/C=C/c3ccccc3)cnc2O[C@H]1CN(C)C(=O)C1CCOCC1`, the cytotoxicity call in the assay with HSkMC and in the assay with HepG2 was “inactive” throughout. Further, the growth inhibition call with S. aureus RN4220 is “inactive”.

As for `Cc1ccc(S(=O)(=O)N(C)C[C@@H]2Oc3ccc(NS(=O)(=O)c4ccc(F)cc4)cc3CC(=O)N([C@H](C)CO)C[C@@H]2C)cc1`, the cytotoxicity call in the assay on HSkMC (human skeletal muscle cells) and with HepG2 was “inactive” in each case. Besides, the growth inhibition call in the assay on S. aureus RN4220 is “inactive”.

On to `CC=C(C)C(=O)OC1C(OC(C)=O)C2(CO)C(O)CC3(C)C(=CCC4C5(C)CCC(OC6OC(C(=O)O)C(OC7OC(CO)C(O)C(O)C7O)C(O)C6OC6OC(CO)C(O)C(O)C6O)C(C)(CO)C5CCC43C)C2CC1(C)C` (centres undefined), for which the cytotoxicity call in the assay with HSkMC and with HepG2 was “active” throughout. In addition, in the assay with S. aureus RN4220, the growth inhibition call was “inactive”.

Consider `COc1ccc(CN(C)C[C@@H]2Oc3ccc(NC(=O)CCN4CCOCC4)cc3C(=O)N([C@@H](C)CO)C[C@@H]2C)cc1`, for which the cytotoxicity call in the assay with HSkMC and in the assay on HepG2 was “inactive” each time. In the assay with S. aureus RN4220, the growth inhibition call was “inactive”.

Regarding `Cc1noc(C)c1NC(=O)N(C)C[C@H]1Oc2ccc(NC(=O)Nc3ccc(C(F)(F)F)cc3)cc2CC(=O)N([C@H](C)CO)C[C@H]1C`, the cytotoxicity call in the assay with HSkMC and with HepG2 was “inactive” in each case. Also, in the assay with S. aureus RN4220, the growth inhibition call is “inactive”.

`NCCc1ccc(O)c(O)c1`: the cytotoxicity call with HSkMC and in the assay on HepG2 was “inactive” in each case. Also, the growth inhibition call in the assay with S. aureus RN4220 is “inactive”.
